Results on 56 compounds are retold here after publication PMC4336329 (PLoS ONE, 2015).

In all, about 310,000 compounds went through this assay and about 2,200 (0.71%) showed an effect of 50% or more. Effects have a minus sign here. This is one part of the list.

The target in the assay is human ether-à-go-go-related gene (hERG) potassium channel (human, UniProt Q12809). Nature of the assay: primary screen, population patch clamp on CHO cells stably expressing hERG.
human ether-à-go-go-related gene (hERG) potassium channel, sequence (Q12809 whole entry, looked up): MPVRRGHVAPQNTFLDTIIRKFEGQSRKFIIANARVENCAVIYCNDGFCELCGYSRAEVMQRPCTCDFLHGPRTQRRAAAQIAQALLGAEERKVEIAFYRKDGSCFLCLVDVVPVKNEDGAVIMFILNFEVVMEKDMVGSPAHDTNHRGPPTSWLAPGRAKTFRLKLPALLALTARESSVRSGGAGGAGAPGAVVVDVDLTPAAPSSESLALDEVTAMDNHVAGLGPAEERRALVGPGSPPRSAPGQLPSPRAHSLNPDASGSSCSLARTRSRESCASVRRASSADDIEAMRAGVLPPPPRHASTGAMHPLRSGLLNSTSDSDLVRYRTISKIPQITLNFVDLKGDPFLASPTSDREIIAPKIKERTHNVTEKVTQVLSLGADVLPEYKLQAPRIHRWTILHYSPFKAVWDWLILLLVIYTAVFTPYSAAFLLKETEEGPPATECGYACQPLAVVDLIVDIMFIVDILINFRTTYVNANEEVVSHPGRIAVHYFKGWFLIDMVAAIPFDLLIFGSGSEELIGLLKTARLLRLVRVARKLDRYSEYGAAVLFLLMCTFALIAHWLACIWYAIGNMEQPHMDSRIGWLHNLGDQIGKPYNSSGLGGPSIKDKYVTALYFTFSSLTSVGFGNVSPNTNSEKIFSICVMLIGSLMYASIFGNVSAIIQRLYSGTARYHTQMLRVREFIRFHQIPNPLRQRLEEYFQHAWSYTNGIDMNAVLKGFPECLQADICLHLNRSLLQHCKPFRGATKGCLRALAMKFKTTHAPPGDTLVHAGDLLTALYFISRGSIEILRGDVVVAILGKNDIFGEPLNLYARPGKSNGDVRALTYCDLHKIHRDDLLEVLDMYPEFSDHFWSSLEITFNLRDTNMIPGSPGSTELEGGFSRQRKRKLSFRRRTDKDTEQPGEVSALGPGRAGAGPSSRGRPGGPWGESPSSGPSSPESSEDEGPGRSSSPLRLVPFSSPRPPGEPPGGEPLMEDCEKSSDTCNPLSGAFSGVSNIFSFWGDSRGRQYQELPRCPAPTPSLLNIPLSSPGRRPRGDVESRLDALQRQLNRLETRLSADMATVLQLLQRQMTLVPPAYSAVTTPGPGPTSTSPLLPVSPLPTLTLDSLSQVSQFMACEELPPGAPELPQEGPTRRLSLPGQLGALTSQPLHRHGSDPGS
With `Cc1ccc(S(=O)(=O)c2c(C)nn(C(C)(C)C)c2OC(=O)C(C)(C)C)cc1`, the “hERG current change (%, negative = inhibition) at 1uM” value is 12.1%. With `CCCc1sc(N2CCCC(C(N)=O)C2)nc1-c1ccccc1` (centres unmarked) the figure was 7.03%; with `CCOC(=O)C(C#N)C(c1cccnc1)c1c(C)[nH][nH]c1=O` (centres unmarked), 19.8%.

As for `C=CCN1C(=O)NC(=O)/C(=C/c2ccc(OC)c(COc3ccc(NC(C)=O)cc3)c2)C1=O`, the “hERG current change (%, negative = inhibition) at 1uM” value turned out to be 11%. Consider `COc1ccccc1NC(=O)c1ccc(CN2CCOCC2)cc1`, for which the “hERG current change (%, negative = inhibition) at 1uM” value was found to be 5.38%. With `Cc1ccc(-n2ncc3c(=O)n(CC(=O)N(C(C)C)C(C)C)cnc32)cc1`, the “hERG current change (%, negative = inhibition) at 1uM” value is 15.4%. As for `COc1cc2c(cc1NC(=O)c1cc(-c3ccncc3)nc3ccccc13)oc1ccccc12`, the “hERG current change (%, negative = inhibition) at 1uM” value is recorded as -3.26%. With `O=C(OCc1cc(=O)n2c(n1)sc1ccccc12)c1ccc(O)cc1O`, the “hERG current change (%, negative = inhibition) at 1uM” value is 7.81%. Take `CCOC(=O)C1CCN(CCCSc2ccc(C)cc2)CC1.Cl`: the “hERG current change (%, negative = inhibition) at 1uM” value is recorded as -36.8%. With `C=CCN1C(=O)c2ccc(C(=O)NCCc3ccc(OC)c(OC)c3)cc2C1=O` the figure was 13.4%. Turning to `CCC(=O)c1c[nH]c(C(=O)NCc2ccccc2OC)c1`, the “hERG current change (%, negative = inhibition) at 1uM” value is on record as 10.4%. For `CCN(CC)Cc1c(C(=O)N/N=C/c2cccnc2)nnn1-c1nonc1N`, the “hERG current change (%, negative = inhibition) at 1uM” value turned out to be 6.93%.

Take `CSc1ccccc1NC(=O)Cn1c([N+](=O)[O-])cnc1C`: the “hERG current change (%, negative = inhibition) at 1uM” value stood at 7.33%. With `Cc1ccc2nc(C3CCN(S(=O)(=O)c4ccc5ccccc5c4)CC3)[nH]c2c1`, the “hERG current change (%, negative = inhibition) at 1uM” value was 9.25%. In the case of `O=C(CNC(=O)[C@@H]1Cc2ccccc2CN1)Nc1ccc2c(c1)OCCO2`, the “hERG current change (%, negative = inhibition) at 1uM” value is 13.4%. As for `Cc1ccc(SCc2[nH]nc3c2C(c2ccco2)C(C#N)=C(N)O3)cc1` (centres unmarked), the “hERG current change (%, negative = inhibition) at 1uM” value is 11.4%.

On to `O=c1cc(CSc2nnc(-c3cccs3)n2Cc2ccccc2)nc2sc3ccccc3n12`, for which the “hERG current change (%, negative = inhibition) at 1uM” value is given as -4.25%.

For the compound `Clc1ccc(Cn2ccnc2)cn1`, the “hERG current change (%, negative = inhibition) at 1uM” value was 0.575%. The figure for `CC(=O)Nc1ccc(S(=O)(=O)Nc2ccc(Cl)cn2)cc1` is 20.5%. On to `CCc1ccc(C2c3[nH]c4ccccc4c3CCN2C(=O)CN2CCN(CC)CC2)cc1` (centres unmarked), for which the “hERG current change (%, negative = inhibition) at 1uM” value amounted to 12%. As for `O=C(O)c1cc(NCc2ccccc2C(F)(F)F)ccc1N1CCOCC1`, the “hERG current change (%, negative = inhibition) at 1uM” value is -7.04%. For the compound `CC1=CC=CC2=NC(=O)CC(C)(C(=O)N(CC(=O)NC(C)C)C3CCCC3)N12` (centres unmarked), the “hERG current change (%, negative = inhibition) at 1uM” value worked out at 9.81%. For `CC(C)Sc1nc2c(cnn2-c2ccccc2)c(=O)[nH]1`, the “hERG current change (%, negative = inhibition) at 1uM” value is listed as 15.4%. As for `CCOC(=O)C1=C(C)N=c2s/c(=C/c3cccc(OCC(=O)O)c3)c(=O)n2C1c1ccc(F)cc1` (centres unmarked), the “hERG current change (%, negative = inhibition) at 1uM” value is reported as 16.2%. As to `COc1ccc(C(=O)N(c2ccc(C)cc2)C2C=CS(=O)(=O)C2)cc1OC` (centres unmarked), the “hERG current change (%, negative = inhibition) at 1uM” value was 10.7%.

For the compound `CCOC(=O)c1cc(=O)c2c([N+](=O)[O-])ccc(OC)c2o1`, the “hERG current change (%, negative = inhibition) at 1uM” value is 10.1%. Consider `Cc1ccc(C(=O)N2CCN(S(=O)(=O)N3CCOCC3)CC2)cc1`, for which the “hERG current change (%, negative = inhibition) at 1uM” value is reported as 7.77%. `Oc1ccccc1N1CCN(c2ccc3ccccc3n2)CC1`: the “hERG current change (%, negative = inhibition) at 1uM” value turned out to be 15.2%.

Consider `CCN(Cc1ccccc1)c1c(C(=O)O)cnc2c1cnn2C`, for which the “hERG current change (%, negative = inhibition) at 1uM” value amounted to 6.01%. On to `CCOC(=O)Cc1csc(NC(=O)c2sc3nc4ccc(C)cc4cc3c2N)n1`, for which the “hERG current change (%, negative = inhibition) at 1uM” value stood at 0.0518%.

In the case of `COc1ccc(CCNC(=O)C2CCN(c3nccc(C)n3)CC2)cc1`, the “hERG current change (%, negative = inhibition) at 1uM” value came out at 15.2%. Take `Cc1ccc(C(=O)C2COC(=O)C2)cc1` (centres unmarked): the “hERG current change (%, negative = inhibition) at 1uM” value was determined as 7.85%.

Regarding `Cn1c(=O)c2c(nc(CN3CCN(CCO)CC3)n2Cc2cccc3ccccc23)n(C)c1=O`, the “hERG current change (%, negative = inhibition) at 1uM” value is on record as 0.112%.

Turning to `CSc1nc(Oc2ccc3ccccc3c2)c2sccc2n1`, the “hERG current change (%, negative = inhibition) at 1uM” value was 3.76%. With `COc1ccc(N2CCN(C(=O)CSc3nnc(-c4cccnc4)n3-c3ccccc3)CC2)cc1` the figure was 1.79%; with `CCCCCCc1cc2cc(S(=O)(=O)c3ccc(F)c(Cl)c3)c(=O)oc2cc1O`, 4%; with `CCOc1ccc(C(C(=O)NCCC(C)C)N(CCO)C(=O)c2snc(C(N)=O)c2N)cc1` (centres unmarked), -6.07%. For the compound `COc1ccc(C(O)c2cc(OC)ccc2OP(=O)(N(C)C)N(C)C)cc1` (centres unmarked), the “hERG current change (%, negative = inhibition) at 1uM” value was determined as 6.74%. Take `COc1ccc(CC(=O)OC(C)C(=O)Nc2ccc(Cl)cn2)cc1` (centres unmarked): the “hERG current change (%, negative = inhibition) at 1uM” value is on record as 4.24%. The figure for `CCOc1ccc(C(=O)Nc2cccc(C)n2)cc1` is 5.92%. `O=C(O)c1cccc(N2CCCC2)c1`: the “hERG current change (%, negative = inhibition) at 1uM” value is given as -5.14%. For the compound `O=C(/C=C/c1ccco1)NC(=S)Nc1cccc(-c2nc3ccccc3o2)c1`, the “hERG current change (%, negative = inhibition) at 1uM” value is listed as 11.3%.

Turning to `COc1ccccc1C(=O)NC(CCSC)C(=O)NNC(=O)c1csc(N2CCOCC2)n1` (centres unmarked), the “hERG current change (%, negative = inhibition) at 1uM” value is 12.2%.

On to `Cc1occc(=O)c1O`, for which the “hERG current change (%, negative = inhibition) at 1uM” value is 13.9%. Turning to `CCN(CC)S(=O)(=O)c1ccc(C(=O)OCC(=O)N2CCN(C(=O)c3ccco3)CC2)cc1`, the “hERG current change (%, negative = inhibition) at 1uM” value is -11.3%. On to `CCC(c1nnc(SCC(=O)NC23CC4CC(CC(C4)C2)C3)o1)N(C)C` (centres unmarked), for which the “hERG current change (%, negative = inhibition) at 1uM” value worked out at 10.4%.

Consider `CC1CN(C(=O)c2ccccc2Sc2ccccc2C#N)CC(C)O1` (centres unmarked), for which the “hERG current change (%, negative = inhibition) at 1uM” value worked out at 3.47%. Consider `COc1cccc(N=Cc2c(O)c3ccccc3oc2=O)c1`, for which the “hERG current change (%, negative = inhibition) at 1uM” value came out at 24.2%. For the compound `CCN(CC)c1ccc(C=C2C(=O)NC(=S)NC2=O)cc1`, the “hERG current change (%, negative = inhibition) at 1uM” value amounted to 8.93%. With `CC(=O)Nc1ccc(S(=O)(=O)Nc2ccc3c(c2)n(C)c(=O)n3C)c(C)c1` the figure was 14%; with `Cc1cc(Cl)ccc1OCCCC(=O)NN`, 7.49%; with `COc1ccc(OC)c(Nc2nc(NCCC(C)C)nc(N)c2[N+](=O)[O-])c1`, 11.5%.

With `COC(=O)c1ccccc1NC(=O)C1CCN(S(=O)(=O)c2cc(C)ccc2OC)CC1`, the “hERG current change (%, negative = inhibition) at 1uM” value is 4.35%. With `CCNC(=O)CC1C(=O)N(c2ccccc2)C(=O)N1CCOC` (centres unmarked) the figure was 2.57%. Consider `Cc1cccc(NC(=O)CNC(=O)N2CC(=O)Nc3ccccc32)c1C`, for which the “hERG current change (%, negative = inhibition) at 1uM” value amounted to 25.5%.

With `Cc1sc2nc(CSc3ccccc3)nc(N3CCC(C(N)=O)CC3)c2c1C`, the “hERG current change (%, negative = inhibition) at 1uM” value is -0.683%.
